Whole data set: some 33,000 sequences, median “E-score (-0.5 to 0.5)” near -0.041, cut for the highest 2% near 0.37. Some of the results follow.
Target: T1, Ecm22 (UniProt Q05958)
T1 sequence: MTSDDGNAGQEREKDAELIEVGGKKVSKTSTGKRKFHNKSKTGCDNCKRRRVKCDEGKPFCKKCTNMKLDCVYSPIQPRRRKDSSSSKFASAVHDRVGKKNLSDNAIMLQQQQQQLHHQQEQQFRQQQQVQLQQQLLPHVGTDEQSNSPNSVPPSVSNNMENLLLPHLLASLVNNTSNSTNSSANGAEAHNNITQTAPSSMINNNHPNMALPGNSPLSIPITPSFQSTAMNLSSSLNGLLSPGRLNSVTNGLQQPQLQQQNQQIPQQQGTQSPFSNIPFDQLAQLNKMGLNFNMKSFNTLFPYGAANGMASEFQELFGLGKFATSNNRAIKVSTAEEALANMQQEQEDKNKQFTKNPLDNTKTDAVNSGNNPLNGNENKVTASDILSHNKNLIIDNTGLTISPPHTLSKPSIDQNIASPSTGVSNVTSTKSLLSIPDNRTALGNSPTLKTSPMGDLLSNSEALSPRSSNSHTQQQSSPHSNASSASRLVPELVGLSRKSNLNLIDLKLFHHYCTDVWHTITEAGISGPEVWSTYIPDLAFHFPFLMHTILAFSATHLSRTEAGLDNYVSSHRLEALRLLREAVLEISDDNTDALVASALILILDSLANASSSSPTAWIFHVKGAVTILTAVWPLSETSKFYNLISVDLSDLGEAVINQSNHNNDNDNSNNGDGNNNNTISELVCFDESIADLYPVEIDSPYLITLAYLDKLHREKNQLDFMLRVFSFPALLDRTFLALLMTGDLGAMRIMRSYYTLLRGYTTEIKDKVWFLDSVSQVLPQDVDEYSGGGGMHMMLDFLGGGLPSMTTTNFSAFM
Test: PBM E-score (8-mer binding enrichment) (E-score (-0.5 to 0.5)); higher = stronger / more preferred TF binding; most listed sequences are background and not binding sites
Conditions: protein concentration: 200 nM; construct: GST-full length
How it was run: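 Masliner-normalised scans of fluorescent anti-GST signal were the basis for scoring. That signal came from GST-tagged yeast transcription factors applied at about 100-200 nM to double-stranded universal all-10-mer Agilent arrays on fresh or once-stripped slides. Each ungapped eight-base word, pooled with its reverse complement, received an E-score from the Universal PBM Analysis Suite.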

Sequence	PBM E-score
CGGATCCC	0.0138
AGACTTGC	-0.104
GGCTAATA	0.065
AGAAAGGG	-0.262
CAAGCGCG	0.0633
AGGAGGTG	-0.298
CGAGATCC	0.2
ACAAGCTG	0.0253
GCGTAGCC	-0.0221
CATGGTCA	0.0751
CACCTAAA	-0.0218
AAGCAGTA	-0.085
ATCGAGAA	0.114
AGTCACGG	-0.0876
AGGCGCAT	-0.136
CTAATTCC	-0.231
CACACGCC	-0.114
GTCTTCTA	-0.101
CGCTTTGC	-0.00819
CAACCCAC	-0.117
AACCCAAT	-0.225
CCCTGTAC	-0.00346
AATGGACA	-0.0492
TGTTATAA	0.0469
GCGGAGAA	0.038

Sequence	PBM E-score
CCTCGTGA	0.201
GTTAAGAA	-0.0835
AGCTAGTG	-0.0503
ATTCACGG	-0.0041
CGGTGAGC	0.057
ATAGTGTC	0.00694
CGCAAGTA	0.0813
CCGCTCGA	-0.03
AACCGAAC	0.21
CCTGTCTA	-0.248
CCTGGCGC	-0.0858
AGTTCACG	0.163
CCGACAAA	0.0481
CCGAGAAG	0.0409
CAACTCCC	-0.0438
AAGTTCAC	-0.0931
CGCTTCGC	0.219
AGTGAAAC	0.0286
CCCATATA	-0.111
GGGACACA	-0.104
CATTATGC	0.0457
CCCATCCG	0.139
ATATTCTC	-0.0713
CATATGAC	-0.0289
GAGTTACA	-0.162

Sequence	PBM E-score
GCACTTCA	-0.0658
GAGCCACC	-0.23
ATGCAAAA	-0.118
TCTGAAAA	-0.165
CATATAAA	0.00534
CGGATCTC	0.164
CATCACCG	0.0155
CTCTCGGA	0.136
CCTCGAAC	-0.00586
GACGCAAC	0.0742
AAGTCCAT	-0.241
ACAAGGTC	-0.0836
ATCCATCC	0.00649
GTAAGCCA	0.0195
AAGCGGAA	-0.0206
CATCATGC	-0.12
ATTTCTTG	-0.125
CAACGAAA	0.278
ACGGGAGG	0.0781
GTTAATCA	0.14
TCTTACAA	-0.102
ATTAGGAC	-0.0376
GTGTTCCA	-0.161
CCAAGTTC	-0.118
GCACCAGC	-0.213

Sequence	PBM E-score
GCCGCTCA	-0.248
GTAAACTA	0.188
CGGCCCTA	-0.221
GCACCAAA	-0.148
ATCCAGAC	-0.244
AGAGGTGA	-0.212
CTTAGTAC	0.199
ATGGAACG	0.402
AGTCAACG	-0.0408
AGTTAATC	0.0122
GAAAACAC	-0.00741
AGTTGCGG	-0.00187
AGCCGTGA	-0.182
ACGCCCTA	-0.178
ACAGTTAA	0.0956
ATAATGTG	-0.057
ATCTGACG	-0.226
CGTATAAG	0.466
ACGACAGC	0.319
CGATTAAG	0.186
CACCCTAG	-0.183
AATAGATT	0.00083
AAGATACT	0.0297
AATGTGGC	0.00744
ACCCTCAG	-0.221

Sequence	PBM E-score
GCGAGCGA	0.31
ATCGCATG	0.0945
AACAAGGT	-0.127
ATAAATTC	0.0271
CCGCACTC	0.123
AAGTCTAC	-0.102
CCACACCC	0.0227
CATGATCG	0.0415
GCCCCAGA	-0.144
CAGGCTAC	-0.0932
CGCATATC	0.194
CTGGTCAC	-0.133
TACTCCCA	-0.0809
ACCGGACA	-0.108
CGGCTAGA	0.0578
ACGTGGAC	-0.0623
AGGAGTTG	0.0179
CAAAGCCC	-0.108
AACCTTCA	-0.245
AAGCATAT	0.00872
AGCCTACC	-0.109
GCAATAAA	0.0544
CGTGTCGA	0.0968
AATATACG	0.461
CATAACTC	-0.0649

Sequence	PBM E-score
CAGGCAAC	-0.0655
CGGAATCA	-0.132
CACGTATG	0.0729
GGCCTTCA	-0.191
AAATGGAG	0.0162
CGTACCGC	0.47
AACCGACA	0.269
CAATTTGG	-0.136
ACACGGGA	0.0892
GCTTGTCA	0.0156
CTCCCACA	-0.196
AACACTTC	-0.00826
ACCACCCT	-0.105
ATCGGCAC	-0.0226
CTATGGGC	-0.243
CCCCGCGC	0.00461
GCCCGGGA	-0.159
GTCGCGGA	0.00957
CAAGCATA	-0.101
CTATAATA	-0.113
AGGGGTAT	-0.191
GCATAGGC	-0.178
CACATCCA	-0.0496
AACATAGC	-0.2
CCAAATAC	-0.0979

Sequence	PBM E-score
ACAACACT	0.116
ACGCCGTA	0.307
GGATGTTA	-0.122
CTTGCAGA	-0.122
CTCGGAAA	0.276
CCCTCTTA	-0.128
AAGGCTTG	-0.162
CAACGTAC	0.221
CGATAGCG	0.128
ACTAAATA	0.0746
CCAGCGGA	-0.124
ACGCATGC	0.128
TCCTTGAA	-0.0614
AGGGTTCG	0.0129
TATTGACA	-0.0652
CCAGGTCC	-0.192
ACGGATAT	0.176
CTCTCACC	-0.0965
GTTATCTA	0.0357
CGACATCG	0.25
ACAGCCCT	-0.279
GACCAGCA	-0.0703

From the supplement of paper PMC3334620
